Reference: PMC9911399, “Two distinct binding modes provide the RNA-binding protein RbFox with extraordinary sequence specificity”
Substitutions are numbered along the chain they refer to; changes in the protein carry UniProt numbers. This is one part of the list.

T1: RBFOX1 RRM RbFoxmut (Fox-RRM*) (Homo sapiens, UniProt Q9NWB1 109-208, R118D;E147R;N151S;E152T)
T1 sequence: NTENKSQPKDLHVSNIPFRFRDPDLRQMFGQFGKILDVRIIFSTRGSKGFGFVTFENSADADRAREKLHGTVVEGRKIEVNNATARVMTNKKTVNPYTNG

B1: ACGGGCA (DNA:RNA)
RNA: GGGAGACCGGAAUUCAGAUUGUCCACGGGCAUUAAAUCCCGUCGUAGCCACCA
DNA 1: CAATCTGAATTCCGGTCTCCC
DNA 2: TGGTGGCTACGACGGGATT
B2: GACCCCC (DNA:RNA)
RNA: B1 RNA with A25G, C26A, G27C, G28C, G29C, A31C
DNA 1: CAATCTGAATTCCGGTCTCCC
DNA 2: TGGTGGCTACGACGGGATT
B3: UGGGUAG (DNA:RNA)
RNA: B1 RNA with A25U, C26G, G29U, C30A, A31G
DNA 1: CAATCTGAATTCCGGTCTCCC
DNA 2: TGGTGGCTACGACGGGATT
B4: AGUCCCA (DNA:RNA)
RNA: B1 RNA with C26G, G27U, G28C, G29C
DNA 1: CAATCTGAATTCCGGTCTCCC
DNA 2: TGGTGGCTACGACGGGATT
B5: CCCGGGG (DNA:RNA)
RNA: B1 RNA with A25C, G27C, C30G, A31G
DNA 1: CAATCTGAATTCCGGTCTCCC
DNA 2: TGGTGGCTACGACGGGATT
B6: UUAUGGA (DNA:RNA)
RNA: B1 RNA with A25U, C26U, G27A, G28U, C30G
DNA 1: CAATCTGAATTCCGGTCTCCC
DNA 2: TGGTGGCTACGACGGGATT
B7: UGUACAC (DNA:RNA)
RNA: GGGAGACCGGAAUUCAGAUUGUCCUGUACACUUAAAUCCCGUCGUAGCCACCA
DNA 1: CAATCTGAATTCCGGTCTCCC
DNA 2: TGGTGGCTACGACGGGATT
B8: UGGUUCG (DNA:RNA)
RNA: B1 RNA with A25U, C26G, G28U, G29U, A31G
DNA 1: CAATCTGAATTCCGGTCTCCC
DNA 2: TGGTGGCTACGACGGGATT
B9: CCGAUGC (DNA:RNA)
RNA: B1 RNA with A25C, G28A, G29U, C30G, A31C
DNA 1: CAATCTGAATTCCGGTCTCCC
DNA 2: TGGTGGCTACGACGGGATT
B10: AAAGCUU (DNA:RNA)
RNA: B1 RNA with C26A, G27A, G29C, C30U, A31U
DNA 1: CAATCTGAATTCCGGTCTCCC
DNA 2: TGGTGGCTACGACGGGATT
B11: UAGGCAA (DNA:RNA)
RNA: B1 RNA with A25U, C26A, G29C, C30A
DNA 1: CAATCTGAATTCCGGTCTCCC
DNA 2: TGGTGGCTACGACGGGATT
B12: CCCGCGA (DNA:RNA)
RNA: B1 RNA with A25C, G27C, G29C, C30G
DNA 1: CAATCTGAATTCCGGTCTCCC
DNA 2: TGGTGGCTACGACGGGATT
B13: GCAGGUA (DNA:RNA)
RNA: B1 RNA with A25G, G27A, C30U
DNA 1: CAATCTGAATTCCGGTCTCCC
DNA 2: TGGTGGCTACGACGGGATT
B14: ACGGGAC (DNA:RNA)
RNA: B1 RNA with C30A, A31C
DNA 1: CAATCTGAATTCCGGTCTCCC
DNA 2: TGGTGGCTACGACGGGATT
B15: CAGCAUU (DNA:RNA)
RNA: B1 RNA with A25C, C26A, G28C, G29A, C30U, A31U
DNA 1: CAATCTGAATTCCGGTCTCCC
DNA 2: TGGTGGCTACGACGGGATT
B16: ACUUUUC (DNA:RNA)
RNA: B1 RNA with G27U, G28U, G29U, C30U, A31C
DNA 1: CAATCTGAATTCCGGTCTCCC
DNA 2: TGGTGGCTACGACGGGATT
B17: UCCGGAG (DNA:RNA)
RNA: B1 RNA with A25U, G27C, C30A, A31G
DNA 1: CAATCTGAATTCCGGTCTCCC
DNA 2: TGGTGGCTACGACGGGATT
B18: GAACCGC (DNA:RNA)
RNA: B7 RNA with U25G, G26A, U27A, A28C, A30G
DNA 1: CAATCTGAATTCCGGTCTCCC
DNA 2: TGGTGGCTACGACGGGATT
B19: AAAAUCG (DNA:RNA)
RNA: B1 RNA with C26A, G27A, G28A, G29U, A31G
DNA 1: CAATCTGAATTCCGGTCTCCC
DNA 2: TGGTGGCTACGACGGGATT
B20: GAGCGGG (DNA:RNA)
RNA: B1 RNA with A25G, C26A, G28C, C30G, A31G
DNA 1: CAATCTGAATTCCGGTCTCCC
DNA 2: TGGTGGCTACGACGGGATT
B21: UGUCAUC (DNA:RNA)
RNA: B7 RNA with A28C, C29A, A30U
DNA 1: CAATCTGAATTCCGGTCTCCC
DNA 2: TGGTGGCTACGACGGGATT
B22: GAAACGA (DNA:RNA)
RNA: B7 RNA with U25G, G26A, U27A, A30G, C31A
DNA 1: CAATCTGAATTCCGGTCTCCC
DNA 2: TGGTGGCTACGACGGGATT
B23: GGCCGUG (DNA:RNA)
RNA: B1 RNA with A25G, C26G, G27C, G28C, C30U, A31G
DNA 1: CAATCTGAATTCCGGTCTCCC
DNA 2: TGGTGGCTACGACGGGATT
B24: GAGUUGC (DNA:RNA)
RNA: B1 RNA with A25G, C26A, G28U, G29U, C30G, A31C
DNA 1: CAATCTGAATTCCGGTCTCCC
DNA 2: TGGTGGCTACGACGGGATT
B25: ACAGGAA (DNA:RNA)
RNA: B1 RNA with G27A, C30A
DNA 1: CAATCTGAATTCCGGTCTCCC
DNA 2: TGGTGGCTACGACGGGATT
B26: UCACCCC (DNA:RNA)
RNA: B7 RNA with G26C, U27A, A28C, A30C
DNA 1: CAATCTGAATTCCGGTCTCCC
DNA 2: TGGTGGCTACGACGGGATT
B27: AUUAUUA (DNA:RNA)
RNA: B1 RNA with C26U, G27U, G28A, G29U, C30U
DNA 1: CAATCTGAATTCCGGTCTCCC
DNA 2: TGGTGGCTACGACGGGATT
B28: UCGGUCG (DNA:RNA)
RNA: B1 RNA with A25U, G29U, A31G
DNA 1: CAATCTGAATTCCGGTCTCCC
DNA 2: TGGTGGCTACGACGGGATT
B29: CCACAUG (DNA:RNA)
RNA: B1 RNA with A25C, G27A, G28C, G29A, C30U, A31G
DNA 1: CAATCTGAATTCCGGTCTCCC
DNA 2: TGGTGGCTACGACGGGATT
B30: GCUACAG (DNA:RNA)
RNA: B7 RNA with U25G, G26C, C31G
DNA 1: CAATCTGAATTCCGGTCTCCC
DNA 2: TGGTGGCTACGACGGGATT
B31: UUCUUAC (DNA:RNA)
RNA: B7 RNA with G26U, U27C, A28U, C29U
DNA 1: CAATCTGAATTCCGGTCTCCC
DNA 2: TGGTGGCTACGACGGGATT

These binders were tested against T1, RBFOX1 RRM RbFoxmut (Fox-RRM*) (assay: EMSA; HiTS-Eq, 1 nM pool, 10 min; buffer printed only for the single-RNA assays: 10 mM Tris pH 7.5, 150 mM NaCl, 3.4 mM EDTA, 0.001% NP-40, 30 C). Conditions: tags: His6 N-terminal (pET28a); label: 5' 32P.
Procedure, shortened: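 A pool of RNA with 7 randomized nucleotides, 5′-radiolabelled and with DNA-annealed flanks, was equilibrated at 1 nM for 10 min in 50 µL with purified RbFox RRM, wild type or mutant, across increasing protein concentrations. Free RNA was separated by 8% native PAGE, excised, reverse-transcribed, barcoded by PCR and sequenced. Relative association constants were obtained from read-count changes of each RNA species versus the control reaction and normalised to the cognate motif.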

Row | Binder | binding signal
1 | B1 | 0.0886 KA relative to UGCAUGU
2 | B2 | 0.0875 KA relative to UGCAUGU
3 | B3 | 0.197 KA relative to UGCAUGU
4 | B4 | 0.0636 KA relative to UGCAUGU
5 | B5 | 0.0532 KA relative to UGCAUGU
6 | B6 | 0.0526 KA relative to UGCAUGU
7 | B7 | 0.0562 KA relative to UGCAUGU
8 | B8 | 0.492 KA relative to UGCAUGU
9 | B9 | 0.1 KA relative to UGCAUGU
10 | B10 | 0.0811 KA relative to UGCAUGU
11 | B11 | 0.0678 KA relative to UGCAUGU
12 | B12 | 0.0823 KA relative to UGCAUGU
13 | B13 | 0.139 KA relative to UGCAUGU
14 | B14 | 0.107 KA relative to UGCAUGU
15 | B15 | 0.107 KA relative to UGCAUGU
16 | B16 | 0.0615 KA relative to UGCAUGU

Row | Binder | binding signal
17 | B17 | 0.0575 KA relative to UGCAUGU
18 | B18 | 0.103 KA relative to UGCAUGU
19 | B19 | 0.0573 KA relative to UGCAUGU
20 | B20 | 0.0902 KA relative to UGCAUGU
21 | B21 | 0.183 KA relative to UGCAUGU
22 | B22 | 0.0502 KA relative to UGCAUGU
23 | B23 | 0.18 KA relative to UGCAUGU
24 | B24 | 0.109 KA relative to UGCAUGU
25 | B25 | 0.129 KA relative to UGCAUGU
26 | B26 | 0.0883 KA relative to UGCAUGU
27 | B27 | 0.154 KA relative to UGCAUGU
28 | B28 | 0.159 KA relative to UGCAUGU
29 | B29 | 0.0793 KA relative to UGCAUGU
30 | B30 | 0.0907 KA relative to UGCAUGU
31 | B31 | 0.0979 KA relative to UGCAUGU
